# Several values for one entry are separate records, joined by “and”; a condition that tells them apart may be missing. Equal values may be shown once. Among all 16,000 compounds or so, about 260 (1.6%) were called active. This list was built around the results that the source calls inconclusive (neither active nor inactive); the mix of calls is not that of the screen. Calls come from the whole dose curve; as a rule, active = well fitted inhibition curve with a large enough effect; inconclusive = small, poorly fitted or top-dose-only effect; inactive = no such curve, though single readings can be large or run the other way. A potency beside an inconclusive call is a rough fit, not a confirmed value.
# Target: Rap guanine nucleotide exchange factor 4 (Homo sapiens) (UniProt Q8WZA2)
# Assay: Validation qHTS for antagonist of cAMP-regulated guanine nucleotide exchange factor 4 (EPAC2); note: nearly all actives have a fitted effect of over 40% in size
# Conditions: EPAC2 Rap1B BODIPY-GDP exchange, fluorescence; activity, negative = inhibition: at 112 µM (top of the series)
# How it was run: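 Normalized against a 6.5 mM cAMP agonist control, compounds were tested on 100 nM EPAC2 exchanging Rap1B-bound BODIPY-GDP (250 nM) for 50 uM GDP. Fluorescence drop (ex 480, em 540 nm) was tracked at room temperature over 30 min at 5-min intervals.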
# Potency is the fitted concentration of half-maximal effect; tags give direction and shape of the fitted curve.
# UniProt Q8WZA2, sequence (Q8WZA2 whole entry, looked up): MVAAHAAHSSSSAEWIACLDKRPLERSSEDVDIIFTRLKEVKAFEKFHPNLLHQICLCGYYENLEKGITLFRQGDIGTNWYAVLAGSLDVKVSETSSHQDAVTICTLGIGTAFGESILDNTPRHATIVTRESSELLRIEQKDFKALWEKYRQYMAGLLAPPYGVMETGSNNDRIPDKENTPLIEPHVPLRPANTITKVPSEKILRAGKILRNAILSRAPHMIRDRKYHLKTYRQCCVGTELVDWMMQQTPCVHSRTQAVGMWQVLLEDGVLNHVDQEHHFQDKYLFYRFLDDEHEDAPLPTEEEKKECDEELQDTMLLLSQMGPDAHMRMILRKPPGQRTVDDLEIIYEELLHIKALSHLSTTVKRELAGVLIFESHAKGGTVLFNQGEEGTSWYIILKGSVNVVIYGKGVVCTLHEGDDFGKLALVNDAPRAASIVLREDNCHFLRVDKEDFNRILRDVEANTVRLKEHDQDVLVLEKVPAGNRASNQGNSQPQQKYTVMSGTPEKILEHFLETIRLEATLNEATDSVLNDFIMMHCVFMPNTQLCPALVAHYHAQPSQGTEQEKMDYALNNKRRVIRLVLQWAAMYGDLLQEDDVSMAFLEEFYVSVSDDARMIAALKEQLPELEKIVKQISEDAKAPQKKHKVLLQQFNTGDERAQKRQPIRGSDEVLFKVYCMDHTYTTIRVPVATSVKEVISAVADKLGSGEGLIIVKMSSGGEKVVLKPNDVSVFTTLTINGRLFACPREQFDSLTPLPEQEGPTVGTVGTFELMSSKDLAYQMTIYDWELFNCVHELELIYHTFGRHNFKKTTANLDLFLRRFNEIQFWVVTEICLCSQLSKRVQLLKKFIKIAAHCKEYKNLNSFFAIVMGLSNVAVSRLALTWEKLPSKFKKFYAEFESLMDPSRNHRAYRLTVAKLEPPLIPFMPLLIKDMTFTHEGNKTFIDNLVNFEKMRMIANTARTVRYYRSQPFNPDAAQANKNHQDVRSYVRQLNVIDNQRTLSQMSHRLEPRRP
Structure (SMILES),Potency,"activity, negative = inhibition"
CC(C)C[C@H](NC(=O)[C@@H](COC(C)(C)C)NC(=O)[C@H](Cc1ccc(O)cc1)NC(=O)[C@H](CO)NC(=O)[C@H](Cc1c[nH]c2ccccc12)NC(=O)[C@H](Cc1cnc[nH]1)NC(=O)[C@@H]1CCC(=O)N1)C(=O)N[C@@H](CCCN=C(N)N)C(=O)N1CCC[C@H]1C(=O)NNC(N)=O,inactive,
COc1ccc(NC(=O)N2CCC3(CC2)CCN(C(=O)c2cc(C(F)(F)F)cc(C(F)(F)F)c2)CC3)cc1,"inconclusive: 56.2 µM [inhibitor, partial curve, poor fit]",
COc1ccc(CN([C@H](CO)CC(C)C)S(=O)(=O)N(Cc2ccccc2)[C@H](CO)CC(C)C)cc1,"inconclusive: 2.51 µM [inhibitor, partial curve, poor fit]",
O=C1[C@H](Cc2ccccc2)NCCCC[C@@H](c2ccc(Cl)cc2)N1Cc1ccc(Cl)cc1,"inconclusive: 0.141 µM [inhibitor, full curve, poor fit]",
CCCC[C@H]1COCCS(=O)(=O)N1Cc1cccc(F)c1,"inconclusive: 20 µM [inhibitor, full curve]",
CC(C)NC(=O)[C@@H]1C[C@@H](Sc2nc3ccccc3[nH]2)CN1C1Cc2ccccc2C1,,inactive: -24.6%
COc1ncc2nc(CCc3ccccc3)c(=O)n(Cc3ccc(F)cc3)c2n1,"inconclusive: 22.4 µM [inhibitor, full curve]",
Cc1ccc(C(=O)N(Cc2cc3ccc(F)cc3nc2N2CCC(O)CC2)CC2CCCO2)cc1 (stereo not given),"inconclusive: 50.1 µM [inhibitor, partial curve, poor fit]",
CC(C)(C)[C@H]1CCC(=O)N([C@H](CC#N)Cc2ccccc2)CC1,"inconclusive: 3.98 µM [inhibitor, full curve, poor fit]",
O=C1CCN(Cc2ccccc2)CCN1[C@H](COc1ccccc1)c1ccccc1,"inconclusive: 5.62 µM [inhibitor, full curve, poor fit]",
N[C@H](C(=O)O)C(O)C(O)C(O)CO (stereo not given in full),,inactive: -19.8%
C[C@@]1(C2CCCC2)Cc2cc(OCC(=O)O)c(Cl)c(Cl)c2C1=O,"inconclusive: 39.8 µM [inhibitor, partial curve, poor fit] and inconclusive: 39.8 µM [inhibitor, partial curve]",
COc1ccccc1CN1CC2(CCN(C(=O)c3cccc(F)c3)CC2)C1,"inconclusive: 20 µM [inhibitor, full curve, poor fit]",
FC(F)(F)c1ccccc1-c1nc(N2CCOCC2)c2ccccc2n1,"inconclusive: 44.7 µM [inhibitor, partial curve]",
COC(=O)c1ccccc1-c1cc(C)cc2c1OC(CNC(=O)c1occc1C)C2 (stereo not given),"inconclusive: 14.1 µM [inhibitor, partial curve, poor fit]",
COC(=O)c1ccccc1-c1cc(C)cc2c1OC(CNC(=O)C1CCCO1)C2 (stereo not given),"inconclusive: 25.1 µM [inhibitor, single point]",
CCC1C(=O)NCCN1Cc1ccc2c(c1)CN(Cc1ccc(F)c(OC)c1)CCO2 (stereo not given),,inactive: -5.08%
CCN(CC)C(C)CN1c2ccccc2Sc2ccccc21 (stereo not given),"inconclusive: 14.1 µM [inhibitor, partial curve]",

Structure (SMILES),Potency,"activity, negative = inhibition"
CC(C)(C)[C@H]1CCC(=O)N([C@H](CSc2ccccc2)Cc2ccccc2)CC1,"inconclusive: 7.94 µM [inhibitor, full curve, poor fit]",
CN(C)c1ccc(N=NS(=O)(=O)O)cc1,"inconclusive: 22.4 µM [inhibitor, full curve, poor fit]",
Cc1ncc(CO)c(C=O)c1O,"inconclusive: 39.8 µM [inhibitor, single point]",
N#C/C(=C\c1ccc(O)c(O)c1)C(=O)NCCCCc1ccccc1,"inconclusive: 50.1 µM [inhibitor, partial curve, poor fit]",
O=C1C[C@H]2C=CCc3cccc(c32)CN1Cc1ccc(Cl)cc1,"inconclusive: 39.8 µM [inhibitor, partial curve]",
Nc1nc2c(ncn2COC(CO)CO)c(=O)[nH]1,"inconclusive: 89.1 µM [inhibitor, single point]",
CC1(C)Oc2ccc3ccc(=O)oc3c2CC1=O,,inactive: 13%
O=C1C[C@H]2C=CCc3cccc(c32)CN1Cc1cccc(F)c1,"inconclusive: 79.4 µM [inhibitor, partial curve, poor fit]",
CCc1ccc(S(=O)(=O)NCc2nc(N3CCCC3)c3cccc(C)c3n2)cc1,"inconclusive: 89.1 µM [inhibitor, single point]",
CC(NC(=O)c1cc(F)ccc1F)c1nnc2n1CCN(Cc1ccccc1O)CC2 (stereo not given),"inconclusive: 7.94 µM [inhibitor, full curve, poor fit]",
Cc1noc(C)c1-c1ccc2ncnc(NCc3cccs3)c2c1,"inconclusive: 44.7 µM [inhibitor, partial curve, poor fit]",
COc1ccc(NC(=O)N2CC3(CCN(C(C)=O)CC3)C2)cc1,,inactive: -19.7%
COc1ccc(CN2CCOc3ccc(CN4CCC(Oc5cccnc5)CC4)cc3C2)cc1C,"inconclusive: 79.4 µM [inhibitor, partial curve, poor fit]",
CCOC(=O)C[C@H]1c2cc(F)ccc2S(=O)(=O)N1Cc1ccc(OC)cc1,"inconclusive: 79.4 µM [inhibitor, single point]",
CO[C@H]1C=CO[C@@]2(C)Oc3c(C)c(O)c4c(O)c(c(/C=N/N5CCN(C)CC5)c(O)c4c3C2=O)NC(=O)/C(C)=C\C=C[C@H](C)[C@H](O)[C@@H](C)[C@@H](O)[C@@H](C)[C@H](OC(C)=O)[C@@H]1C,"inconclusive: 31.6 µM [inhibitor, partial curve]",
O=C1CCN(CCc2ccccc2)CCN1[C@H](COc1ccccc1)Cc1ccccc1,"inconclusive: 0.126 µM [inhibitor, full curve, poor fit]",
CCN(CC)C(=O)c1ccc(O)c(OC)c1,"inconclusive: 11.2 µM [inhibitor, single point] and inconclusive: 89.1 µM [inhibitor, single point]",
